# Test results from the supplement of paper PMC8728848.
# The other results are listed elsewhere or left out.
# How the values were obtained:
# Assay in all cases: glycan array binding signal (z-score within array); higher = stronger binding
# Conditions in all cases: glycan notation: IUPAC condensed, linker removed
# [1] = target: Gal(b1-4)GlcNAc(b1-3)GalNAc
# Summary of the method: (§1)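 Arrays were curated from the Consortium for Functional Glycomics database, 3228 in total, and kept only where the protein sequence was available. Binding is expressed as a within-array Z-score. This score was averaged across arrays of the same protein sequence at different concentrations or buffers and across linkers, and negative values can be read as non-binding.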
# [2] = target: Gal(b1-4)GlcNAc(b1-3)[Gal(b1-4)GlcNAc(b1-6)]GalNAc
# Summary of the method: as §1
# [3] = target: Gal(b1-4)GlcNAc(b1-6)Gal(b1-4)GlcNAc(b1-6)GalNAc
# Summary of the method: as §1
# [4] = target: Gal(b1-4)GlcNAc(b1-6)GalNAc
# Summary of the method: as §1
# [5] = target: Gal(b1-4)GlcNAc(b1-6)[Gal(b1-3)]GalNAc
# Summary of the method: as §1
# Gal3S(b1-3)GalNAc = target: Gal3S(b1-3)GalNAc
# Summary of the method: as §1
# Gal3S(b1-3)GlcNAc = target: Gal3S(b1-3)GlcNAc
# Summary of the method: as §1
# [6] = target: Gal3S(b1-3)[Fuc(a1-4)]GlcNAc
# Summary of the method: as §1
# Gal3S(b1-4)Glc = target: Gal3S(b1-4)Glc
# Summary of the method: as §1
# Gal3S(b1-4)Glc6S = target: Gal3S(b1-4)Glc6S
# Summary of the method: as §1
# Gal3S(b1-4)GlcNAc = target: Gal3S(b1-4)GlcNAc
# Summary of the method: as §1
# Gal3S(b1-4)GlcNAc6S = target: Gal3S(b1-4)GlcNAc6S
# Summary of the method: as §1
# Gal3S6S(b1-4)GlcNAc = target: Gal3S6S(b1-4)GlcNAc
# Summary of the method: as §1
# Gal3S6S(b1-4)GlcNAc6S = target: Gal3S6S(b1-4)GlcNAc6S
# Summary of the method: as §1
# Gal4S(b1-4)GlcNAc = target: Gal4S(b1-4)GlcNAc
# Summary of the method: as §1
# Gal4S6S(b1-4)GlcNAc = target: Gal4S6S(b1-4)GlcNAc
# Summary of the method: as §1
# Gal6S(b1-4)Glc = target: Gal6S(b1-4)Glc
# Summary of the method: as §1
# Gal6S(b1-4)Glc6S = target: Gal6S(b1-4)Glc6S
# Summary of the method: as §1
# Gal6S(b1-4)GlcNAc = target: Gal6S(b1-4)GlcNAc
# Summary of the method: as §1
# GalNAc(a1-3)Gal = target: GalNAc(a1-3)Gal
# Summary of the method: as §1
# GalNAc(a1-3)GalNAc = target: GalNAc(a1-3)GalNAc
# Summary of the method: as §1
# [7] = target: GalNAc(b1-3)Gal(a1-4)Gal(b1-4)GlcNAc
# Summary of the method: as §1
# GalNAc(b1-3)GalNAc = target: GalNAc(b1-3)GalNAc
# Summary of the method: as §1
# GalNAc(b1-4)GlcNAc = target: GalNAc(b1-4)GlcNAc
# Summary of the method: as §1
# Glc(a1-4)Glc = target: Glc(a1-4)Glc
# Summary of the method: as §1
# Glc(a1-6)Glc(a1-6)Glc = target: Glc(a1-6)Glc(a1-6)Glc
# Summary of the method: as §1
# Glc(b1-4)Glc = target: Glc(b1-4)Glc
# Summary of the method: as §1
# Glc(b1-6)Glc = target: Glc(b1-6)Glc
# Summary of the method: as §1
# GlcA(b1-3)Gal = target: GlcA(b1-3)Gal
# Summary of the method: as §1
# GlcA(b1-6)Gal = target: GlcA(b1-6)Gal
# Summary of the method: as §1
# [8] = target: GlcNAc(a1-3)Gal(b1-4)GlcNAc
# Summary of the method: as §1
# [9] = target: GlcNAc(a1-6)Gal(b1-4)GlcNAc
# Summary of the method: as §1
# [10] = target: GlcNAc(b1-2)Gal(b1-3)GalNAc
# Summary of the method: as §1
# [11] = target: GlcNAc(b1-2)Man(a1-3)[GlcNAc(b1-2)Man(a1-6)]Man(b1-4)GlcNAc(b1-4)GlcNAc
# Summary of the method: as §1
# GlcNAc(b1-3)Gal = target: GlcNAc(b1-3)Gal
# Summary of the method: as §1
# [12] = target: GlcNAc(b1-3)Gal(b1-3)GalNAc
# Summary of the method: as §1
# GlcNAc(b1-3)Gal(b1-4)Glc = target: GlcNAc(b1-3)Gal(b1-4)Glc
# Summary of the method: as §1
binder,measurement,setting,value
MAL (Maackia amurensis) (protein) SDELSFTINNFMPNQGDLLFQGVATVSPTGVLQLTSEENGQPLEYSVGRVLYTAPVRIWDSTTGAVASFSTSFTFVVKAARGASDGLAFFLAPPDSQIPSGSVSKYLGLFNNSNSDSSNQIVAVEFDTYFGHSYDPWDPNYRHIGIDVNGIESIKTVQWDWINGGVAFATITYLAPNKTLIASLVYPSNQTSFIVAASVDLKEILPEWVRVGFSAATGAPKAVETHDVRSWSFTSTLEANSPADVDN,glycan array binding signal (z-score),[1],1.49
same,glycan array binding signal (z-score),[2],2.17
same,glycan array binding signal (z-score),[3],1.55
same,glycan array binding signal (z-score),[4],-0.204
same,glycan array binding signal (z-score),[5],-0.171
same,glycan array binding signal (z-score),Gal3S(b1-3)GalNAc,3.46
same,glycan array binding signal (z-score),Gal3S(b1-3)GlcNAc,2.67
same,glycan array binding signal (z-score),[6],-0.401
same,glycan array binding signal (z-score),Gal3S(b1-4)Glc,4.98
same,glycan array binding signal (z-score),Gal3S(b1-4)Glc6S,4.51
same,glycan array binding signal (z-score),Gal3S(b1-4)GlcNAc,4.96
same,glycan array binding signal (z-score),Gal3S(b1-4)GlcNAc6S,5.35
same,glycan array binding signal (z-score),Gal3S6S(b1-4)GlcNAc,0.345
same,glycan array binding signal (z-score),Gal3S6S(b1-4)GlcNAc6S,-0.067
same,glycan array binding signal (z-score),Gal4S(b1-4)GlcNAc,-0.28
same,glycan array binding signal (z-score),Gal4S6S(b1-4)GlcNAc,-0.318
same,glycan array binding signal (z-score),Gal6S(b1-4)Glc,-0.322
same,glycan array binding signal (z-score),Gal6S(b1-4)Glc6S,-0.181
same,glycan array binding signal (z-score),Gal6S(b1-4)GlcNAc,-0.066
same,glycan array binding signal (z-score),GalNAc(a1-3)Gal,-0.273
same,glycan array binding signal (z-score),GalNAc(a1-3)GalNAc,-0.352
same,glycan array binding signal (z-score),[7],-0.397
same,glycan array binding signal (z-score),GalNAc(b1-3)GalNAc,0.05
same,glycan array binding signal (z-score),GalNAc(b1-4)GlcNAc,-0.131
same,glycan array binding signal (z-score),Glc(a1-4)Glc,-0.322
same,glycan array binding signal (z-score),Glc(a1-6)Glc(a1-6)Glc,-0.403
same,glycan array binding signal (z-score),Glc(b1-4)Glc,-0.412
same,glycan array binding signal (z-score),Glc(b1-6)Glc,-0.428
same,glycan array binding signal (z-score),GlcA(b1-3)Gal,-0.414
same,glycan array binding signal (z-score),GlcA(b1-6)Gal,-0.231
same,glycan array binding signal (z-score),[8],-0.353
same,glycan array binding signal (z-score),[9],-0.365
same,glycan array binding signal (z-score),[10],-0.423
same,glycan array binding signal (z-score),[11],-0.377
same,glycan array binding signal (z-score),GlcNAc(b1-3)Gal,-0.422
same,glycan array binding signal (z-score),[12],-0.412
same,glycan array binding signal (z-score),GlcNAc(b1-3)Gal(b1-4)Glc,-0.409
